According to PubChem BioAssay AID686971 (National Center for Advancing Translational Sciences (NCATS), 2013):
In all, about 360,000 compounds went through this assay and about 7,500 (2.1%) were called active. The inconclusive results got no clear call from the source; some entries with a clear call stand among them for comparison. Calls follow the shape of the dose curve; as a rule, active = well fitted cell-killing curve with a large enough effect; inconclusive = small, poorly fitted or top-dose-only effect, or effect the other way, or another doubt; inactive = no such curve, though single readings can be large or run the other way. Potencies of inconclusive entries are left out as doubtful fits.

assay: qHTS for induction of synthetic lethality in tumor cells producing 2HG: qHTS for the HT-1080-IDH1KD cell line; details: HT-1080 IDH1 knockdown viability, ATP luminescence, 48 h; activity, negative = toxicity: at 46.1 µM (top of the series) unless noted;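 as to activity, negative = toxicity: 0% = DMSO wells and -100% = cell-free medium wells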
Procedure, shortened: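 % activity derives from luminescence (CellTiter-Glo), normalised to DMSO and no-cell wells. HT-1080-IDH1KD cells, 750/well, had 48 h compound exposure at 37 °C.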
Potency is read from the fitted curve at half-maximal effect; tags tell the direction and shape of the fitted curve.

SMILES	Potency	activity, negative = toxicity
O=C(CSC1CCCCC1)Nc1nccs1	inactive	–
COc1cc(/C=C(/C#N)C(=O)Nc2ccccc2)ccc1OCc1ccc(C(=O)O)cc1	inactive	–
CN1/C(=C\C(=O)c2cccs2)Sc2ccccc21	inconclusive [cytotoxic, partial curve]	–
Cc1cnc(NC(=O)CCCc2nc3ccccc3s2)s1	inconclusive [cytotoxic, single point]	–
COc1cccc(-c2cnc3c(NC(C)=O)cc(-c4ccc(C(=O)N5CCOCC5)cc4)cn23)c1	active: 20.6 µM	–
CCOc1ccc(N(CC(=O)Nc2ccccc2OC)S(=O)(=O)c2ccccc2)cc1	active: 1.64 µM	–
Cc1cc2c(cc1C)C(c1ccccc1OC(C)C)CC(=O)N2 (centres undefined)	active: 2.31 µM	–
Cc1oc(-c2ccc(-c3ccccc3)cc2)nc1CN(C)C1CCOC1 (centres undefined)	inconclusive [cytotoxic, single point]	–
CCCCN(CC)CCCNC(=S)Nc1ccc2nc3n(c(=O)c2c1)CCCCC3	inconclusive [cytotoxic, partial curve]	–
CC(=O)N1CCN(S(=O)(=O)c2cccc(C(=O)Nc3cc(C(F)(F)F)ccc3N3CCOCC3)c2)CC1	inactive	–
Cc1ccc(N=C2N=C(N)c3ccccc32)cc1C	inconclusive [cytotoxic, single point]	–
CCCCn1nnnc1C(c1cccc(OC)c1OC)N1CCN(C/C=C/c2ccccc2)CC1 (centres undefined)	inconclusive [cytotoxic, single point]	–
COc1ccc(NC(=S)N/N=C/c2cccn2Cc2ccccc2F)cc1	inconclusive [cytotoxic, partial curve]	–
Cc1ccccc1-c1cnc(C(O)c2cc(Cl)cc(Cl)c2)[nH]1 (centres undefined)	inconclusive [cytotoxic, single point]	–
O=C1c2cccc(Cl)c2C(=O)c2c1cccc2N1CCCC1	inconclusive [cytotoxic, single point]	–
CN(C)CCCNC(=O)/C=C/c1ccc(OCc2c(F)cccc2Cl)cc1	inconclusive [cytotoxic, single point]	–
Oc1ccc(Cl)cc1C1=NNC(c2cccs2)C1 (centres undefined)	inconclusive [cytotoxic, partial curve, poor fit]	–
Cc1ccc(C(O)c2ncc(-c3ccc(Cl)cc3)[nH]2)cc1F (centres undefined)	inconclusive [cytotoxic, single point]	–
Cc1ccc(N=Cc2ccc(N(C)C)cc2)cc1C	inactive	–
Cc1cc(NC(=O)CSc2nnc3c(C)cc4c(C)ccc(C)c4n23)no1	active: 6.31 µM	–
O=C1C=CC(=O)C(CNc2ccc(C(=O)OCc3ccccc3)cc2)=C1	active: 10.3 µM	–
Cc1cnc(N=Nc2ccccc2)[nH]1	inconclusive [cytotoxic, single point]	–
CCc1ccc(/C=C/C(=O)c2ccc(N3CCOCC3)cc2)cc1	inconclusive [cytotoxic, single point]	–
O=C(O)c1ccc(N/N=C/c2ccc(-c3cccc(Cl)c3)o2)cc1	active: 16.4 µM	–
CCOc1ccc(C(=O)Nc2ccc(CN3CCOCC3)cc2)cc1Br	inactive	–

SMILES	Potency	activity, negative = toxicity
COc1ccc(/C=N\NC(=O)c2cc3c(ccc4ccccc43)o2)cc1O	active: 4.61 µM	–
CCNc1nc(C)c2cc(Br)c(=O)n(CC)c2n1	active: 2.06 µM	–
C(=N\Nc1nc2ccccc2[nH]1)/c1cccc2cccnc12	inconclusive [cytotoxic, full curve]	–
Cc1cc(C)n(-c2ccc3cccc(NS(C)(=O)=O)c3n2)n1	inconclusive [cytotoxic, full curve]	–
COc1ccc(S(=O)(=O)N2CCOC23CCN(S(=O)(=O)c2ccc(Cl)cc2)CC3)cc1	inactive	–
CC(O)(c1cccc(F)c1)c1nc(-c2ccc3ccccc3c2)cs1 (centres undefined)	inconclusive [cytotoxic, single point]	–
COc1ccc(-n2cnc3scc(-c4ccccc4)c3c2=O)cc1	inactive	–
CN(CCC(=O)Nc1ccc2c(c1)OCO2)Cc1ccccc1	inactive	–
COc1ccc(NC(=O)Nc2cccc3c2O[C@H](CN(C)S(=O)(=O)c2ccccc2)[C@@H](C)CN([C@H](C)CO)C3=O)cc1	–	inconclusive: -11.1% [cytotoxic]
O=C(C[C@H]1C/C=C\CC[C@H](Cc2ccc(F)cc2)C(=O)OC[C@H]2CCCN2C1=O)N[C@@H](CO)Cc1ccccc1	inactive	–
COc1ccccc1CNC(=O)C1CC(c2cccc([N+](=O)[O-])c2)=NO1 (centres undefined)	inconclusive [cytotoxic, single point]	–
CCc1ccc(OCC(=O)NNC(=O)C2CCN(c3ncnc4sc(C)c(C)c34)CC2)cc1	inactive	–
Cc1ccnc(NC(=O)c2ccc([N+](=O)[O-])s2)c1	inconclusive [cytotoxic, single point]	–
Cc1ccc(NC(=O)COS(=O)c2ccc(C)cc2)cc1 (centres undefined)	inactive	–
CC(=O)Cc1cc(O)c2ccccc2c1OC(=O)c1ccccc1	inconclusive [cytotoxic, single point]	–
CCOC(=O)C1(C)CCCCN1C(=O)c1ccccc1OC (centres undefined)	inconclusive [cytotoxic, single point]	–
CC1CCCCC1Nc1nc2ccc(Cl)cc2n2cnnc12 (centres undefined)	inconclusive [cytotoxic, single point]	–
Cc1noc(C)c1-c1ccc(C(=O)Nc2cccc(C(F)(F)F)c2)c2occc12	inconclusive [cytotoxic, single point]	–
N#C/C(=C(/O)COC(=O)COc1ccc(Cl)cc1)c1nc2ccccc2[nH]1	inactive	–
CCN(CC)S(=O)(=O)c1ccc(NC(=O)CN(c2cccc(C)c2)S(C)(=O)=O)cc1	inconclusive [cytotoxic, single point]	–
CC(=NNC(=S)Nc1cccc(Cl)c1)c1ccccn1	inconclusive [cytotoxic, partial curve, poor fit]	–
O=C(NCc1ccccc1)C1c2ccccc2OCC(=O)N1Cc1ccc2c(c1)OCO2 (centres undefined)	inconclusive [cytotoxic, single point]	–
CC(C)=CCN1CCN(Cc2cnc(N3CCOCC3)s2)CC1CCO (centres undefined)	–	inconclusive: -15.8% [cytotoxic]
O=S1(=O)CC(N2CCCCC2)CN1Cc1cn(Cc2cccc(C(F)(F)F)c2)nn1 (centres undefined)	inactive	–
CC(=O)Nc1nc(-c2ccc3c(c2)CCN3C(=O)C2CC2)c(C)s1	inconclusive [cytotoxic, partial curve]	–

SMILES	Potency	activity, negative = toxicity
CC(=O)N/C(=N\c1nc(C)cc(C)n1)Nc1ccc2ccccc2c1	inactive	–
C/C(=N\NC(=O)C1=NNC(=O)C1C)c1cccs1 (centres undefined)	inconclusive [cytotoxic, partial curve]	–
O=S1(=O)c2cccc3cccc(c23)N1Cc1ccc(-c2nnco2)cc1	inconclusive [cytotoxic, single point]	–
CCOC(=O)/C(C#N)=C/c1c(N2CCN(CC)CC2)nc2c(C)cccn2c1=O	inactive	–
Cc1ccc(C2=NN(C(=O)CSc3nccn3C)C(c3ccco3)C2)cc1 (centres undefined)	active: 14.6 µM	–
NCCOc1ccc(C23CC4CC(CC(C4)C2)C3)cc1	inconclusive [cytotoxic, single point]	–
CN(C)c1cc[n+](CC(=O)Nc2ccc(Cl)cc2)cc1	inconclusive [cytotoxic, partial curve, poor fit]	–
Cc1ccc(Sc2cnn(-c3ccccc3)c(=O)c2Cl)cc1	inactive	–
Cc1ccc(CNCC(O)(c2ccccc2)c2ccc(Cl)cc2)cc1 (centres undefined)	inconclusive [cytotoxic, single point]	–
COc1ccccc1C(=O)NC(=O)COC(=O)CCS(=O)(=O)c1ccc(C)cc1	inactive	–
CSCC[C@H](NC(=O)OC(C)(C)C)C(=O)N/N=C/c1cccc2cccnc12	inconclusive [cytotoxic, single point]	–
FCCCOc1ccc(/C=N/OCc2ccc(Cl)cc2)cc1	inactive	–
Cc1cccc(C(=O)NC(C(=O)Nc2nc(-c3ccccn3)cs2)C(C)C)c1 (centres undefined)	inconclusive [cytotoxic, partial curve]	–
Cc1ccc(C2Cc3cc(O)c(O)cc3CN2)cc1 (centres undefined)	inconclusive [cytotoxic, single point]	–
Cc1cccc(N/N=C(\C#N)S(=O)(=O)C(C)(C)C)c1	inactive	–
CCN(CC)CCC(=O)Nc1cccc2c1C(=O)c1ccccc1C2=O	active: 14.6 µM	–
CN(NC(=O)c1ccccc1)c1nc2ccccc2nc1C(F)(F)F	inconclusive [cytotoxic, single point]	–
O=c1c2ccccc2nc(SCc2ccc([N+](=O)[O-])cc2)n1CCCO	inconclusive [cytotoxic, single point]	–
Cc1cccc(N2CN(Cc3ccco3)CNC2=S)c1C	inactive	–
FC(F)(F)c1cc(-c2ccco2)nc(NCc2ccc(Cl)cc2)n1	inconclusive [cytotoxic, single point]	–
Cc1ccc(NCCC(=O)c2cccc([N+](=O)[O-])c2)c(C)c1	inconclusive [cytotoxic, single point]	–
COc1ccc(NC(=O)COc2ccc(N(C)S(=O)(=O)c3ccc(Cl)cc3)cc2)cc1	inactive	–
CCCOc1ccc(C2C(C(=O)c3ccco3)=C(O)C(=O)N2CCCn2ccnc2)cc1OC (centres undefined)	inactive	–
Cc1nc(NC(=O)CC(C)C)sc1-c1csc(Nc2ccc(Cl)cc2Cl)n1	inconclusive [cytotoxic, single point]	–
